# Experimental data: PubChem BioAssay AID720708 (National Center for Advancing Translational Sciences (NCATS), 2013)
# About 660 (0.18%) of roughly 360,000 compounds were called active. Inconclusive results, whose numbers are uncertain, are shown with a selection of clear calls. The call rests on the fitted dose curve; in most records, active means well fitted inhibition curve with a large enough effect; inconclusive means small, poorly fitted or top-dose-only effect; inactive means no such curve, though single readings can be large or run the other way. Potencies of inconclusive entries are left out as doubtful fits.
# Molecular target: Rap guanine nucleotide exchange factor 4 (Homo sapiens) (UniProt Q8WZA2)
# UniProt Q8WZA2, sequence (Q8WZA2 whole entry, looked up): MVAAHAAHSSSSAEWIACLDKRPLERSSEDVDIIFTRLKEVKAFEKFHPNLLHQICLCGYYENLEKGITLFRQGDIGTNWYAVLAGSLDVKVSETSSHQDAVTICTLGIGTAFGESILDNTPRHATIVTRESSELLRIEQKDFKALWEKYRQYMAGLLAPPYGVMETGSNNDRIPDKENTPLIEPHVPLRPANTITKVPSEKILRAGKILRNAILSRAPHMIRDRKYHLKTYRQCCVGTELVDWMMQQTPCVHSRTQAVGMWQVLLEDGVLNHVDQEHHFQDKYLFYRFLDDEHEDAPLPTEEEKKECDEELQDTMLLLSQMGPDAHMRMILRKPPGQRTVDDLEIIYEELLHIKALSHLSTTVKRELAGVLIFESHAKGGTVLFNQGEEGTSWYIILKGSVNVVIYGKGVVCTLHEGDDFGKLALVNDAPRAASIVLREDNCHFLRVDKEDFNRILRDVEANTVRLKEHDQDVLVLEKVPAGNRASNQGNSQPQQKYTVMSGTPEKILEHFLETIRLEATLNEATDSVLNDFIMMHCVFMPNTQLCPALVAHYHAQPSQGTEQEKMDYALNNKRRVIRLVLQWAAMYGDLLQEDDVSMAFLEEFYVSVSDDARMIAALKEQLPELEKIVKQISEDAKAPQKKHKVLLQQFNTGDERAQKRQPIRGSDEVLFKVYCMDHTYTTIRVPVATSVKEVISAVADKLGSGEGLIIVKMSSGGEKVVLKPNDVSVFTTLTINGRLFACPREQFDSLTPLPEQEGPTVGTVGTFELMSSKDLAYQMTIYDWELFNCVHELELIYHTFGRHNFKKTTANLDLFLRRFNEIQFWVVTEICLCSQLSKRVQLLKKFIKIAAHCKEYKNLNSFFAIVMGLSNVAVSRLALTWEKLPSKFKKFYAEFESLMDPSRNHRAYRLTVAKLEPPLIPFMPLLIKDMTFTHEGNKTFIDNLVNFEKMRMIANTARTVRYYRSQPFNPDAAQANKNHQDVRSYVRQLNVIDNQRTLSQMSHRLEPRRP
# Assay: qHTS for Antagonist of cAMP-regulated guanine nucleotide exchange factor 2 (EPAC2): primary screen; further: nearly all actives have a fitted effect of over 45% in size
# Details: EPAC2 GEF exchange of Rap1B-BODIPY-GDP, fluorescence; series mostly up to 114 µM
# Potency means the concentration at half of the fitted maximal effect; tags describe the fitted curve by direction and shape.
row,SMILES,Potency
1,CC1CCCN(S(=O)(=O)c2ccc3[nH]c4c(c3c2)CCCC4)C1 (stereo not drawn),"inconclusive [inhibitor, partial curve]"
2,CC1=NN(C(N)=S)C(=O)C1N=Nc1ccc([N+](=O)[O-])cc1 (stereo not drawn),"inconclusive [inhibitor, partial curve]"
3,CCc1ccc(/C=N/NC(=O)c2c[nH]c3ccccc23)s1,"inconclusive [inhibitor, full curve, poor fit]"
4,CCC(=O)N1N=C(c2ccc(Cl)cc2)CC1c1ccco1 (stereo not drawn),"inconclusive [inhibitor, partial curve]"
5,CCOC(=O)c1cnc(SCc2nc(N)nc(Nc3ccc(C)cc3)n2)nc1N,"inconclusive [inhibitor, single point]"
6,O=C(NCc1ccccn1)C1(C(F)(F)F)C/C(=C\CCO)CCCO1 (stereo not drawn),inactive
7,COc1ccc(C2CC(c3ccncc3)=NN2c2ccc(S(N)(=O)=O)cc2)cc1 (stereo not drawn),"inconclusive [inhibitor, single point]"
8,CC(=O)NC(c1ccc(F)c(F)c1)c1nc(-c2ccccc2)cs1 (stereo not drawn),"inconclusive [inhibitor, full curve, poor fit]"
9,CN(Cc1ccccc1N1CCCC1)C(=O)c1cc2ccccc2o1,"inconclusive [inhibitor, partial curve]"
10,CCOc1ccc2nc3cc(N=Nc4ccc(N)nc4N)ccc3c(N)c2c1,"inconclusive [inhibitor, partial curve]"
11,COc1cc(C(=O)Nc2ccccc2N2CCCCC2)cc(OC)c1OC,"inconclusive [inhibitor, partial curve]"
12,C=CCC[C@@H](CCCCC)OC(=O)/C=C/[C@H](O)[C@@H](O)C[C@H](O)CC=C,"inconclusive [inhibitor, partial curve]"
13,CCC(CC)C(=O)N1N=C(c2ccc(NS(C)(=O)=O)cc2)CC1c1ccc(C)cc1 (stereo not drawn),"inconclusive [inhibitor, full curve]"
14,Oc1ccc(/C=N/Nc2cc(N3CCOCC3)nc(N3CCOCC3)n2)cc1,inactive
15,O=[N+]([O-])c1ccc(CSc2nc3ccccc3[nH]2)cc1,inactive
16,O=[N+]([O-])c1ccc(Sc2cccc[n+]2[O-])c2nonc12,active: 56.2 µM
17,O=C(c1ccco1)N1CCN(C2CN(Cc3ccc(F)cc3)S(=O)(=O)C2)CC1 (stereo not drawn),"inconclusive [inhibitor, full curve, poor fit]"
18,COc1cc2ccccc2cc1C(=O)N1CC(C)CC(C)C1 (stereo not drawn),active: 28.2 µM
19,O=C(O)c1ccc(N/N=C/c2cccc(C(F)(F)F)c2)cc1,"inconclusive [inhibitor, partial curve]"
20,Cc1nnc(SCC(=O)Nc2cc(S(=O)(=O)N3CCCC3)ccc2Cl)n1C1CC1,inactive
21,CC1=NOC(=O)/C1=C\c1ccc(-c2cccc(Cl)c2)o1,inactive
22,CNc1c(NC(=O)c2ccc3c(c2)OCO3)c(=O)oc2ccccc12,inactive
23,Cc1ccc(S(=O)(=O)N2[C@@H](c3ccc(F)cc3)C(C(=O)O)=CC[C@H]2c2ccc(C(C)C)cc2)cc1,"inconclusive [inhibitor, partial curve]"

row,SMILES,Potency
1,C=CCn1c(SCCOc2ccc(OC)cc2)nnc1C(C)NC(=O)Cc1ccc(OC)cc1 (stereo not drawn),inactive
2,O=C(CCn1c(=O)oc2ccccc21)N(Cc1ccccc1)c1ccccc1,"inconclusive [inhibitor, partial curve]"
3,Nc1ncc(-c2ccc(-c3ccccc3)cc2F)cc1-c1ccccc1F,inactive
4,COC(=O)c1ccc2nc(-c3ccc(C)cc3)c(CC3CCCCC3)n2c1,"inconclusive [inhibitor, full curve]"
5,COc1ccccc1Cc1c(-c2ccc(OC)c(OC)c2)nc2ccc(Cl)cn12,"inconclusive [inhibitor, full curve, poor fit]"
6,COC(=O)c1cc(Br)c(=O)n(CCc2ccc(F)cc2)c1,active: 28.2 µM
7,CCOc1ccccc1N1CCN(S(=O)(=O)c2cc(C)ccc2OC)CC1,"inconclusive [inhibitor, partial curve]"
8,CO/N=C(\Cn1ncc(N2CCOCC2)c(Br)c1=O)c1ccc(Cl)cc1,"inconclusive [inhibitor, partial curve]"
9,COc1cccc2c1Oc1ncccc1N(C(=O)CCC(=O)NCc1cccc(C)c1)C2,"inconclusive [inhibitor, partial curve]"
10,O=C(c1ccco1)N(Cc1ccc([N+](=O)[O-])cc1)c1ccc(Br)cc1,"inconclusive [inhibitor, full curve]"
11,O=C(NC12CC3CC(CC(C3)C1)C2)c1cncc(Br)c1,inactive
12,O=C(NC(Cc1ccccc1)C(=O)N1CCN(S(=O)(=O)c2ccccc2F)CC1)c1ccccc1 (stereo not drawn),"inconclusive [inhibitor, single point]"
13,COCCCNCCCCOc1ccc(OCc2ccccc2)cc1,inactive
14,COc1ccc(OC)c(C(=O)c2coc3cc(Br)c(O)c(Br)c23)c1,"inconclusive [inhibitor, partial curve]"
15,CC(C)n1c(SCc2ccccc2F)nc2c1c(=O)n(C)c(=O)n2C,"inconclusive [inhibitor, partial curve]"
16,Cc1ccc(Nc2n[nH]c(=S)s2)cc1F,inactive
17,COc1ccc(NC(=O)C2C(c3ccccc3)C2(Cl)Cl)c(OC)c1 (stereo not drawn),"inconclusive [inhibitor, single point]"
18,C=CCC[C@@H](CCCCC)OC(=O)/C=C/[C@H](O)[C@@H](O)C[C@@H](O)CC=C,"inconclusive [inhibitor, partial curve]"
19,COc1ccc(NC(=O)C2(C)CCN2C2Cc3ccccc3C2)cc1OC (stereo not drawn),"inconclusive [inhibitor, partial curve]"
20,CS/C(=C\C(=O)c1ccco1)Nc1ccccc1Cl,"inconclusive [inhibitor, partial curve]"
21,CCOc1ccc(NC(=O)c2ccc3snnc3c2)cc1,inactive
22,COc1cc(/C=C2\SC(=Nc3ccccc3)N(CCc3c[nH]c4ccccc34)C2=O)ccc1OC(C)C(=O)O (stereo not drawn),"inconclusive [inhibitor, partial curve]"
23,COc1ccc(-c2cc(C(=O)OCC(=O)NC3CC3)c3ccccc3n2)cc1,"inconclusive [inhibitor, partial curve]"

row,SMILES,Potency
1,O=C(CC[C@H]1O[C@@H](n2ccc(=O)[nH]c2=O)[C@H](O)[C@@H]1O)NCCCc1ccccc1,"inconclusive [inhibitor, single point]"
2,O=P(c1ccccc1)(c1ccccc1)c1nc(-c2ccc(Cl)cc2)oc1N1CCOCC1,"inconclusive [inhibitor, partial curve]"
3,Cc1ccc(C)c(-c2csc(N)c2C(=O)OC(C)C)c1,"inconclusive [inhibitor, partial curve]"
4,CCc1cccc(C)c1NC(=S)N(CCOC)C(C)c1ccco1 (stereo not drawn),"inconclusive [inhibitor, partial curve]"
5,CCc1nc2ccc(C(=O)N(C)Cc3ccccc3)cn2c1N(C)CCCc1ccccc1,"inconclusive [inhibitor, partial curve]"
6,COc1ccc(C(=O)/C=C/c2cccc(OCc3ccccc3)c2)cc1CSCC(=O)O,"inconclusive [inhibitor, partial curve]"
7,CC1(C)C(=O)Nc2ccccc2N1C(=O)COC(=O)c1ccc(NC(N)=O)cc1,inactive
8,COc1ccc(CCN(C)C/C=C/c2ccccc2[N+](=O)[O-])cc1OC,inactive
9,CCn1c(-c2cc(-c3cc(OC)ccc3OC)nc3ccccc23)n[nH]c1=S,inactive
10,COc1ccccc1NCCC(=O)OCC(=O)Nc1ccccc1F,inactive
11,CCCCC1(CC(=O)OCC)C(=O)N(c2ccccc2)N(c2ccccc2)C1=O,"inconclusive [inhibitor, partial curve]"
12,CN1C(=O)c2cccc3c(S(=O)(=O)Nc4ccccc4F)ccc1c23,"inconclusive [inhibitor, full curve, poor fit]"
13,O=C(c1ccccc1)N(Cc1ccccc1)Cc1ccccc1,"inconclusive [inhibitor, partial curve]"
14,CCC1CN(C(=O)NCc2ccc(C)cc2)c2cc(C)ccc2O1 (stereo not drawn),"inconclusive [inhibitor, full curve, poor fit]"
15,C[C@@H]1CCCCCCCCC(=O)OCCN1C(=O)OC(C)(C)C,"inconclusive [inhibitor, single point]"
16,COc1ccc(OC)c(NC(=O)C2(C)CCN2CCc2ccccc2)c1 (stereo not drawn),"inconclusive [inhibitor, full curve]"
17,S=c1sscc1-c1ccccc1,inactive
18,CCc1ccc(C2=CC(c3cc(Br)ccc3F)n3ncnc3N2)cc1 (stereo not drawn),"inconclusive [inhibitor, partial curve, poor fit]"
19,NC(=O)c1nnn(Cc2cc(Cl)c(C(=O)c3ccc(Cl)cc3)c(Cl)c2)c1N,"inconclusive [inhibitor, partial curve]"
20,CSc1nc(S(=O)(=O)c2ccc(C)cc2)c(Cl)s1,"inconclusive [inhibitor, partial curve]"
21,CC1CC(NC(=O)Cc2ccc(Br)cc2)CC(C)(C)C1 (stereo not drawn),"inconclusive [inhibitor, partial curve]"
22,C=CCN1CN(S(=O)(=O)c2cccc(Cl)c2)c2nc3ccccc3nc21,"inconclusive [inhibitor, partial curve]"
